Out of some 52,000 compounds screened, about 4,300 (8.3%) were called active. Cut-off read from the data, not from the text of the source: active = survival mostly below about 52% (no sharp cut-off); inactive = mostly above about 56%. The list shows a part of the results.
test system: DeltatarO mutant; experiment: growth inhibition of S. aureus wild type versus tarO mutant, primary screen, teichoic acid synthesis inhibitors, RN4220, OD600 (AID 463173); details: OD600, 18 h, hits give low values, screened at 18.75 µg/mL (by protocol)

Row | Structure (SMILES) | survival
1 | COc1ccc(Br)c2c1-c1nc(NC(=O)c3ccc(F)cc3)sc1C2 | inactive: 67%
2 | CCOC(=O)N1CCC(NC(=O)c2ccc3c(c2)N(Cc2ccccc2)C(=O)c2ccccc2S3(=O)=O)CC1 | inactive: 52%
3 | CCOc1ccc(Nc2nc(N)c(C(=O)c3ccccc3Cl)s2)cc1 | active: 0%
4 | CCN(CC)S(=O)(=O)c1ccc(NC(=O)c2nn(C)c3c2CSc2ccccc2-3)cc1 | inactive: 75%
5 | O=c1cc(O)n(-c2ccccc2)c(=S)[nH]1 | inactive: 94%
6 | Fc1ccc(Nc2nc(SCc3cccc(F)c3)nc3ccccc23)cc1 | inactive: 75%
7 | Cc1cccc(CC(=O)NC2CC(=O)N(c3ccc4c(c3)OCCO4)C2)c1 (stereo unspecified) | inactive: 72%
8 | Cc1ccccc1CSc1ncc(Cl)c(C(=O)NCc2ccccc2)n1 | inactive: 83%
9 | CCOC(=O)c1ccc(N2C(=O)c3[nH]nc(-c4ccc(C)cc4)c3C2c2ccc(O)cc2)cc1 (stereo unspecified) | inactive: 87%
10 | CCC(=O)N1CCc2cc(Br)cc(S(=O)(=O)CCC(=O)Nc3ccc(CC)cc3)c21 | inactive: 88%
11 | CC(=O)N1CCC2(CC1)OC(=O)C(C)=C2C(=O)NCc1ccccc1Cl | inactive: 89%
12 | COc1ccc(-c2cn3c(n2)sc2cc(C(=O)Nc4ccc(F)cc4)ccc23)cc1 | inactive: 75%
13 | Cc1cc(NC(=O)c2ccc(F)cc2)ccc1-c1cc2ccccc2oc1=O | inactive: 75%
14 | Cc1ccc(Cl)cc1NC(=O)c1csnn1 | inactive: 78%
15 | CC(=O)OC1=C(C(C)=O)N(Cc2ccccc2)S(=O)(=O)c2ccccc21 | inactive: 63%
16 | CC1CCN(C(=O)CCS(=O)(=O)c2cc3c(cc2Cl)NC(=O)CO3)CC1 | inactive: 105%
17 | CCOC(=O)c1nnn(CC(=O)NC(=O)Nc2ccccc2F)c1C(=O)OCC | inactive: 78%
18 | CCCCSc1nnc2[nH]c(=O)cc(C)n12 | inactive: 99%
19 | O=C(c1cc(-c2ccc(Br)cc2)n[nH]1)N1CCN(S(=O)(=O)c2ccc(Br)s2)CC1 | inactive: 93%
20 | Cc1cccn2c3c(c(=O)nc12)C(c1cccc(F)c1)CC(=O)N3 (stereo unspecified) | inactive: 58%
21 | CCC1CCCCN1Cc1c(O)ccc2c(=O)c(Oc3ccccc3Cl)c(C(F)(F)F)oc12 (stereo unspecified) | inactive: 61%
22 | Cc1oc2ncn(CC(C)C)c(=O)c2c1C(=O)NCCc1ccc(Cl)cc1 | inactive: 85%
23 | Cc1ccc(CNC(=O)c2ccc3c(c2)CCN3S(=O)(=O)c2ccccc2)cc1 | active: 37%

Row | Structure (SMILES) | survival
24 | Cc1ccc2c(CC(=O)Nc3cccc(C(F)(F)F)c3)coc2c1 | active: 1%
25 | CC1(C)Cc2c(c(N3CCOCC3)nc3sc(C(=O)Nc4ccc(Cl)cc4)c(N)c23)CO1 | inactive: 77%
26 | Cc1cccc(NC(=O)CSc2nc(-c3cccc(C)c3)nc3c2Cc2c(CO)cnc(C)c2O3)c1 | inactive: 97%
27 | CCOc1ccc(S(=O)(=O)Nc2cccc(-c3ccc(N4CCCC4)nn3)c2)cc1 | inactive: 120%
28 | CCc1nc2ccc(C(=O)NCc3ccc(OC)c(OC)c3)cc2nc1CC | inactive: 74%
29 | c1coc(CNc2ncnc3sc4c(c23)CCCC4)c1 | inactive: 107%
30 | Cc1ccc2c(c1)-c1onc(C(=O)N(C)c3cccc(C(F)(F)F)c3)c1CO2 | inactive: 108%
31 | Cc1ccccc1CNC(=O)Cn1c(C)c2cnn(-c3ccccc3)c(=O)c2c1C | inactive: 102%
32 | CCCCOc1ccc(C(=O)Nc2cc(-c3ccc(C)cc3)no2)cc1 | inactive: 79%
33 | CCOC(=O)c1sc(N2C(=O)c3oc4ccccc4c(=O)c3C2c2ccc(C(C)(C)C)cc2)nc1C (stereo unspecified) | active: 51%
34 | CCOC(=O)COc1ccc(/C=C(\C#N)c2nc3ccc(C)cc3[nH]2)cc1OC | active: 43%
35 | Cc1cccc(NC(=O)CC2Nc3cccc4cccc(c34)NC2=O)c1 (stereo unspecified) | inactive: 64%
36 | COC(=O)c1cc2oc(C)cc2n1Cc1cc(C)ccc1C | active: -9%
37 | Cc1ccc(C)c(NC(=O)Cn2ncc3c([nH]c4ccccc43)c2=O)c1 | inactive: 63%
38 | CCOc1ccc(NC(=O)CSc2nc(-c3cccc(Cl)c3)nc3c2Cc2c(CO)cnc(C)c2O3)cc1 | inactive: 55%
39 | CCc1nc(N=C(N)N)nc2ccc(C)cc12 | inactive: 58%
40 | Cc1ccc(C)c(NC(=O)CSc2c(C)cnc3c2c(=O)n(C)c(=O)n3C)c1 | inactive: 79%
41 | O=C(Cn1cnc2nc3c(cc2c1=O)CCCC3)N1CCN(c2cccc(C(F)(F)F)c2)CC1 | inactive: 55%
42 | CCC(=O)N1c2ccccc2CC1C(=O)N1CCN(c2cccc(OC)c2)CC1 (stereo unspecified) | inactive: 66%
43 | COc1ccc(Cn2c(C(=O)O)c(CNC3CCCC3)c3ccc(C)cc32)cc1 | inactive: 79%
44 | CC(=O)c1ccc(S(=O)(=O)Nc2ccc(-c3ccc(N4CCCCC4)nn3)cc2)cc1 | inactive: 81%
45 | Cc1ccc(N(C)C(=O)CC(C)S(=O)(=O)c2ccc3c(c2)NC(=O)CO3)cc1 (stereo unspecified) | inactive: 120%
46 | CCc1ccc(NC(=O)Cn2ccn(-c3ccc(OC)cc3)c(=O)c2=O)cc1 | inactive: 67%

Row | Structure (SMILES) | survival
47 | CCCOC(=O)C1=C(C)OC23OC(N)=C(C#N)C12C(=O)c1ccccc13 (stereo unspecified) | inactive: 80%
48 | Cc1ccc(-c2nnc(Nc3cccc(Br)c3)c3ccccc23)cc1S(=O)(=O)N1CCCCC1 | inactive: 70%
49 | CCc1ccc(CN(Cc2ccco2)C(=O)COc2ccccc2Cl)cc1 | inactive: 51%
50 | COCC(C)NCc1cc(F)ccc1F (stereo unspecified) | inactive: 64%
51 | O=C(c1ccco1)N1CCN(c2c3c(nc4cc(-c5cccc(F)c5)nn24)CCCC3)CC1 | inactive: 70%
52 | Cc1cccc(-n2c(=O)c3c(c4cc(C)ccc4n3C)n(C)c2=O)c1 | inactive: 67%
53 | Cc1c(Cl)cccc1NC(=O)N1CCC(CN2CCOCC2)CC1 | inactive: 77%
54 | Cc1ccc(C)c(C(=O)CSc2nc(-c3ccccc3)nc3c2CCCC3)c1 | active: 2%
55 | CCCCN1C(=O)CN(C2CCCCCC2)C(=O)C1c1ccc(OCC)c(OC)c1 (stereo unspecified) | inactive: 95%
56 | COCCN(Cc1ccco1)C(=O)Cn1ncc2c([nH]c3ccccc32)c1=O | inactive: 92%
57 | O=c1c2c(nc3cc(-c4cccc(Cl)c4)[nH]n13)CCCC2 | inactive: 86%
58 | Cc1cc2c(cc1S(=O)(=O)CCC(=O)N(C)C1CCCCC1)OCC(=O)N2 | inactive: 89%
59 | CN1CCc2c(sc3nc(=S)[nH]c(N)c23)C1 | inactive: 92%
60 | Cc1ccc(-c2nnn3c2nc(NCCc2ccccc2)c2ccccc23)cc1 | inactive: 112%
61 | CN(c1ncnc2c1c(-c1ccccc1)cn2-c1cccc(Cl)c1)C1CCCCC1 | inactive: 83%
62 | COc1cccc(NC(=O)CCc2nc(-c3ccc(C(C)(C)C)cc3)no2)c1 | inactive: 85%
63 | CCCCn1c(=O)c2oc3ccccc3c2n(Cc2ccc(OC)cc2)c1=O | inactive: 104%
64 | Cc1cc(C)cc(NC(=O)c2cn3c4c(ccc(Cl)c4c2=O)OC(C)C3)c1 (stereo unspecified) | inactive: 91%
65 | CCOC(=O)CCSc1nc(C)cc(C(F)(F)F)c1C#N | inactive: 88%
66 | COc1ccccc1CNC(=O)c1ccc(-c2nc(CS(=O)c3ccc(C)cc3)c(C)o2)cc1 (stereo unspecified) | inactive: 119%
67 | COc1ccc(S(=O)(=O)Nc2ccc3c(c2)sc(=O)n3C)cc1Cl | inactive: 122%
68 | Cc1cccc2cc(CN(Cc3ccco3)C(=O)c3ccccc3)c(=O)[nH]c12 | inactive: 95%
69 | O=C(c1ccc([N+](=O)[O-])cc1)N(Cc1ccco1)c1ccccn1 | inactive: 56%

Row | Structure (SMILES) | survival
70 | CC(=O)OCc1cnc(C)c2oc(=O)c(C(=O)Nc3cc(F)ccc3C)cc12 | inactive: 171%
71 | CCOc1ccccc1NC(=O)C1CCCN(c2ncnc3onc(-c4ccc(F)cc4)c23)C1 (stereo unspecified) | inactive: 85%
72 | CC(C)C(=O)Nc1nnc(S(=O)(=O)N(C)Cc2ccc(F)cc2)s1 | inactive: 94%
73 | COc1ccc(NC(=O)C2CCN(S(=O)(=O)c3cn(C)cn3)CC2)cc1Cl | inactive: 69%
74 | O=C(NC1=NCCS1)c1ccccc1 | inactive: 101%
75 | O=S1(=O)CCC(NCc2ccccc2)C1 (stereo unspecified) | inactive: 89%
76 | NC(=O)CN1C(=O)C2(SCC(=O)N2c2cccc(F)c2)c2ccccc21 (stereo unspecified) | inactive: 78%
77 | Cc1ccc(NC(=O)CSc2nnc(COc3ccc(Cl)cc3)o2)cc1 | inactive: 49%
78 | COc1ccc(C2C(C(=O)Nc3ccc(C)cc3C)=C(C)Nc3nc(SC)nn32)cc1OC (stereo unspecified) | inactive: 108%
79 | COC(=O)c1cc2c(ccn2-c2ccc(F)cc2)n1Cc1ccccc1 | inactive: 98%
80 | Cc1ccccc1-c1nc(SCC(=O)NCc2ccc(F)cc2)c2c(=O)n(C)c(=O)n(C)c2n1 | inactive: 94%
81 | O=C(Oc1ccccc1)C1C2CCCCC21 (stereo unspecified) | inactive: 104%
82 | O=C(CSc1oc(-c2ccccc2)nc1S(=O)(=O)c1ccc(Br)cc1)c1ccccc1 | inactive: 58%
83 | COc1ccc(C)cc1NC(=O)COc1cc(=O)n(C)c2ccccc12 | inactive: 90%
84 | CCc1ccc(NC(=O)CN(C)S(=O)(=O)c2ccc3c(c2)c(=O)n(C)c(=O)n3C)cc1 | inactive: 133%
85 | COc1ccc(NC(=O)c2ccco2)cc1NC(=O)COc1cccc(C)c1C | inactive: 55%
86 | Cc1ccc(NC(=O)c2nnn(Cc3ccccc3)c2N)cc1C | inactive: 73%
87 | CCOC(=O)c1cc2c(=O)n3ccccc3nc2n(Cc2ccco2)c1=NC(=O)c1ccc(Br)cc1 | inactive: 55%
88 | CCOC(=O)/C(C#N)=C/c1ccc(-c2ccc(Cl)c(C(=O)OC)c2)o1 | inactive: 92%
89 | Cc1cc(-c2ccc(C)c(S(=O)(=O)Nc3cccc(C)n3)c2)on1 | inactive: 75%
90 | CC(=O)Nc1ccc(NC(=O)c2cc(=O)c3ccccc3o2)cc1 | inactive: 59%
91 | CCc1ccc(-n2nnc(-c3nsc(NC(=O)c4ccccc4Cl)n3)c2C)cc1 | active: 15%

Reference: PubChem BioAssay AID463173 (ICCB-Longwood Screening Facility, Harvard Medical School, 2010)
